“And” between values parts separate entries of the source, which are not always exact repeats. Equal entries are not always repeated. About 5,300 (4.4%) of roughly 120,000 compounds were called active. The shares of active, inactive and inconclusive entries below differ from those in the screen. The call rests on the fitted dose curve; in most records, active means well fitted inhibition curve with a large enough effect; inconclusive means small, poorly fitted or top-dose-only effect; inactive means no such curve, though single readings can be large or run the other way. A potency beside an inconclusive call is a rough fit, not a confirmed value.
Assay: qHTS Primary assay for Inhibitors of Plasmodium falciparum Dd2 growth in vitro; further: nearly all actives have a fitted effect of over 65% in size;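 on activity, negative = inhibition: plate controls were DMSO vehicle for no effect and reference drug for full effect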
Conditions: P. falciparum Dd2 growth, SYBR Green, 72 h; activity, negative = inhibition: at 28.9 µM (top of the series) unless noted; series mostly up to 28.9 µM
Procedure, shortened: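 Readout: SYBR Green fluorescence, 485 nm excitation, 535 nm emission, after ~16 h lysis at 37C. Before that, Dd2-infected red cells (2.5% hematocrit) grew 72 h with compound, 29 uM top final concentration.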
Potency means the concentration at half of the fitted maximal effect; tags describe the fitted curve by direction and shape.

| SMILES | Potency | activity, negative = inhibition | outcome |
| --- | --- | --- | --- |
| COc1ccccc1CN1Cc2cc(NC(=O)c3ccc4c(c3)OCO4)ccc2OC(C)C1=O (centres undefined) | active: 3.98 µM | – | – |
| Cc1ccc(NC(=O)Cn2c(N3CCCCC3)nc(C)c(C)c2=O)c(C)c1 | inconclusive: 0.891 µM [inhibitor, single point] | – | – |
| Cc1ccc(Cl)cc1N1CCN(CCCNC(=O)c2nnc(Cc3cccc(Cl)c3)o2)CC1 | inconclusive: 12.6 µM [inhibitor, partial curve, poor fit] | – | – |
| C=CCN1CC2(CCC1=O)CCN(c1nccc(C(F)(F)F)n1)CC2 | inconclusive: 17.8 µM [inhibitor, single point] | – | – |
| O=C(NC1CCNCC1)c1cc(C2CC2)nc2c1c(C1CCCN1)nn2-c1ccccc1 (centres undefined) | inconclusive: 11.2 µM [inhibitor, single point] | – | – |
| COc1ccc(C(=O)Nc2ccc3c(c2)CN(Cc2cc(F)cc(F)c2)C(=O)C(C)O3)cc1 (centres undefined) | – | inactive: -13.7% | – |
| CC(CNC(=O)Cn1c(-c2cccs2)cc2ccccc21)c1ccccc1 (centres undefined) | active: 11.2 µM | – | – |
| O=C(CCc1c[nH]c2ccccc12)NCC(=O)N1CCCCCCNC(=O)CC1c1ccccc1 (centres undefined) | inconclusive: 11.2 µM [inhibitor, partial curve, poor fit] | – | – |
| COC(=O)Cc1c(C)c2ccc3c(c2oc1=O)CN(Cc1ccccc1OC)CO3 | active: 12.6 µM | – | – |
| Cc1cccc(CNCc2ccccc2OCC(O)CN2CCSCC2)c1 (centres undefined) | active: 1.58 µM | – | – |
| COc1ccc2ccc(OCc3nc(C(=O)N4CC(N5CCCCC5)C4)co3)cc2c1 | active: 8.91 µM | – | – |
| O=C(Cn1nc2c(cc1=O)CCCC2)N1CCc2c([nH]c3ccccc23)C1 | inconclusive: 3.16 µM [inhibitor, single point] | – | – |
| COc1ccc(CNC(=O)C[C@@H]2CCNC[C@@H]2Cc2cc(-c3ccc(C(C)(C)C)cc3)on2)cc1OC | inconclusive: 3.98 µM [inhibitor, single point] | – | – |
| CCOc1ccc(S(=O)(=O)N2C[C@@H](F)C[C@H]2C(=O)N2CCc3ccccc3C2)cc1 | – | – | inactive |
| O=C(CC[C@H]1NC(=O)c2ccccc2NC1=O)Nc1nc2c(s1)CCC2 | – | inactive: -22.5% | – |
| COCCCNC(=O)c1cc2c(=O)[nH]c(-c3ccccc3)cn2n1 | inconclusive: 7.94 µM [inhibitor, single point] | – | – |
| COc1cc(=O)n2c(c1C(=O)Nc1ccc(Cl)cc1)CCCC2 | – | inactive: 7.72% | – |
| COc1ccc(-c2cnc3n[nH]c(-c4ccccc4)c3n2)cc1 | – | inactive: 7.83% [at 44.1 µM] | – |
| CCCNC(=O)N1CCC2(CCCN(Cc3cccc(F)c3F)C2=O)C1 (centres undefined) | – | inactive: -9.73% | – |
| CCn1cc(C(=O)N2CCc3cc(S(=O)(=O)NCC4CCCO4)ccc3C2)cn1 (centres undefined) | – | inactive: 7.5% | – |
| COc1ccc(CN2CCCC3(C2)C(=NC2CCCCC2)NC(=O)N3c2cccnc2)cc1 (centres undefined) | inconclusive: 4.47 µM [inhibitor, partial curve] | – | – |
| CCOC(=O)c1cc(-c2ccccc2)n(CCC(=O)Nc2ccc(C)cc2Cl)c1C | – | inactive: -47.1% | – |
| Cc1ccc(-c2ccc3nnc(CNC(=O)c4ccn[nH]4)n3n2)cc1 | – | inactive: -11.1% | – |

| SMILES | Potency | activity, negative = inhibition | outcome |
| --- | --- | --- | --- |
| Cc1ccc2c(c1)C(=O)C(=O)N2Cc1ccc(OC(C)C)cc1 | inconclusive: 1.12 µM [inhibitor, single point] | – | – |
| O=C(Cn1ccn(-c2cccc(Cl)c2)c(=O)c1=O)c1ccc(F)cc1 | – | inactive: -0.622% | – |
| O=C(NCCCN1CCN(c2ccc(F)cc2)CC1)c1sc2ncccc2c1-n1cccc1 | inconclusive: 17.8 µM [inhibitor, single point] | – | – |
| Cc1cc(C(=O)NC2CC(C)(C)Cc3nc(C(C)(C)C)ncc32)n[nH]1 (centres undefined) | inconclusive: 8.91 µM [inhibitor, partial curve, poor fit] | – | – |
| Cc1ccc(NC(=O)CCS(=O)(=O)c2ccc(Br)cc2)c(C)c1 | inconclusive: 0.0891 µM [inhibitor, full curve, poor fit] | – | – |
| Cc1cnn(CC(=O)N2C[C@@H](COc3ccccc3)[C@H](C(N)=O)C2)c1 | – | inactive: -2.19% | – |
| COc1ccc2nc(C[C@@H]3C[C@@H](C(C)C)[C@H](CN4C(=O)C(C)=C(C)C4=O)C=C3C)[nH]c2c1 | – | – | inactive |
| CCSc1ncc(CN2CCN(c3nc(C)cnc3C)CC2)cn1 | inconclusive: 17.8 µM [inhibitor, partial curve, poor fit] | – | – |
| COc1ccccc1OCc1cc(C(=O)NC(CO)C(C)C)n[nH]1 (centres undefined) | – | inactive: -3.05% | – |
| CN1CCN(c2ccc(-c3noc([C@@H]4CCCN4Cc4ccncc4)n3)cn2)CC1 | inconclusive: 10 µM [inhibitor, partial curve, poor fit] | – | – |
| Cc1ccc2c(c1)CC(C)N2S(=O)(=O)c1nnc(NC(=O)c2ccccc2F)s1 (centres undefined) | – | inactive: -21% | – |
| O=C(N[C@@H]1CCOC[C@H]1Oc1ccccn1)c1ccc(N2CCCC2=O)cc1 | – | inactive: -5.7% | – |
| COc1ccc(CN2CCCC23Cc2ccccc2CNC3=O)cc1F (centres undefined) | inconclusive: 6.31 µM [inhibitor, partial curve, poor fit] | – | – |
| CN(CC1CCN(CCc2ccc(F)cc2)CC1)C1CCC1 | inconclusive: 4.47 µM [inhibitor, partial curve, poor fit] | – | – |
| COc1cccc(-c2nc(CS(=O)(=O)CC(=O)NCCc3ccc(OC)c(OC)c3)c(C)o2)c1 | inconclusive: 17.8 µM [inhibitor, single point] | – | – |
| Cc1c(C(=O)Nc2ccc(F)c(F)c2)oc2ccc(S(=O)(=O)N(C)C3CCCCC3)cc12 | inconclusive: 17.8 µM [inhibitor, single point] | – | – |
| C[C@H](O)c1c(-c2ccc(F)cc2)noc1C(=O)N1CCC1 | – | inactive: -8.9% [at 44.1 µM] | – |
| CCOc1ccc(-c2cn3c(n2)sc2cc(C(=O)NCCCN(CC)CC)ccc23)cc1 | active: 2.82 µM | – | – |
| COc1cccc(CNC(=O)[C@@H]2C[C@@H](O)CN2C2CCN(C(=O)c3sccc3C)CC2)c1 | – | – | inactive |
| COc1ccc(C(=O)N(CC2CC2)CC2CN(C(=O)Nc3ccccc3)CCO2)cc1OC (centres undefined) | inconclusive: 3.98 µM [inhibitor, full curve] | – | – |
| CCN(CC)C(=O)Cn1c(=O)cc(C)c2c(C)nn(C)c21 | – | – | inactive |
| O=C(NCCN1CCOC1=O)c1cn(Cc2ccccc2C(F)(F)F)nn1 | – | inactive: 2.21% | – |
| COc1ccc(NC(=O)Cn2c(N3CCN(c4ccccc4)CC3)nc(C)cc2=O)cc1 | inconclusive: 10 µM [inhibitor, single point] | – | – |

| SMILES | Potency | activity, negative = inhibition | outcome |
| --- | --- | --- | --- |
| Cc1ccc(-c2[nH]ncc2CN)cc1C | inconclusive: 5.62 µM [inhibitor, partial curve, poor fit] | – | – |
| Cc1cc2c(c(=O)n(-c3ccc(F)cc3)c(=O)n2CC(=O)Nc2cccc(C#N)c2)n1C | – | inactive: -8.51% | – |
| Cc1ccccc1-n1c(=O)c2c3c(sc2n2cnnc12)CCCC3 | – | inactive: 99.1% | – |
| COc1ccc(OC)c(S(=O)(=O)NC[C@H]2C[C@@H]3CCN2C[C@@H]3c2cc(-c3ccc(F)cc3)nn2C)c1 | inconclusive: 1.58 µM [inhibitor, full curve, poor fit] | – | – |
| COc1ccc(CNC(=O)C2CCN(c3nnc(-n4cccc4CNc4ccc(C)cc4)s3)CC2)c(OC)c1 | inconclusive: 12.6 µM [inhibitor, single point] | – | – |
| C[S+](=O)([O-])c1ccc(-c2cc3c(cn2)CN(Cc2ccccc2)CCN3)cc1 | – | – | inactive [at 44.1 µM] |
| COC(=O)[C@@H]1Cc2c([nH]c3ccccc23)[C@H]2C[C@@H](NCCO)C[C@@H](c3ccc(F)cc3)N21 | – | – | inactive |
| O=C(Nc1cccc(-c2nnc3n2CCCC3)c1)c1ccoc1 | inconclusive: 0.355 µM [inhibitor, full curve, poor fit] | – | – |
| O=C(c1ccccc1)N1CCC2(C1)C(=O)N(CCc1ccccc1)c1ccccc12 (centres undefined) | inconclusive: 17.8 µM [inhibitor, single point] and inconclusive: 10 µM [inhibitor, single point] | – | – |
| O=C(CSc1nc2c([nH]c3ccccc32)c(=O)n1-c1ccccc1F)Nc1ccccc1C(F)(F)F | active: 10 µM | – | – |
| CCOCCNc1nccc(C2(c3ccccc3Cl)CCNCC2)n1 | inconclusive: 20 µM [inhibitor, single point] | – | – |
| Cc1ccc(Cl)cc1N1CCN(C(=O)c2cc(S(=O)(=O)N3CCCCCC3)cn2C)CC1 | inconclusive: 8.91 µM [inhibitor, partial curve, poor fit] | – | – |
| O=C1CCN(C(=O)Nc2ccccc2)CCOCCN1 | – | – | inactive |
| O=C(CN(CCc1ccccc1)S(=O)(=O)c1ccccc1)NCc1ccc(Cl)cc1 | inconclusive: 20 µM [inhibitor, single point] | – | – |
| CCOc1ccc(-c2cc3nc(C4CCN(C(=O)OC(C)(C)C)CC4)c(C(=O)Nc4ccc(C)cc4Cl)cn3n2)cc1 | active: 3.98 µM | – | – |
| Cc1cc(C)cc(NC(=O)N2CCCC(Cn3c(C4CC4)nc4cccnc43)C2)c1 (centres undefined) | inconclusive: 3.98 µM [inhibitor, single point] | – | – |
| O=S(=O)(c1ccc(Br)cc1)c1nnn2c1nc(Nc1cccc(C(F)(F)F)c1)c1sccc12 | inconclusive: 5.62 µM [inhibitor, partial curve, poor fit] | – | – |
| Cn1cccc1C(=O)N1CCC2(CCC(=O)N(CC3CCCO3)C2)CC1 (centres undefined) | – | inactive: -12.2% | – |
| COCCOc1cc(C)c2c(c1C)C[C@H](C(C)C(=O)N1CCSCC1)CC2 (some centres undefined) | active: 10 µM | – | – |
| CN1CCCN(C(=O)c2cn3ccnc(-c4ccccc4)c3n2)CC1 | inconclusive: 17.8 µM [inhibitor, single point] | – | – |
| Cc1nn2c(c1-c1ccccc1OCc1ccccc1)N(Cc1ccccc1)CCC2 | inconclusive: 2 µM [inhibitor, full curve, poor fit] | – | – |
| Cc1cccc(NC(=O)c2c(NC(=O)c3ccccc3)sc3c2CCCC3)c1 | – | inactive: 35.7% | – |
| CCCC(=O)N1Cc2ccccc2CC2(CCN(Cc3ccccn3)C2)C1 (centres undefined) | inconclusive: 5.01 µM [inhibitor, partial curve, poor fit] | – | – |

From PubChem BioAssay AID1347417 (National Center for Advancing Translational Sciences (NCATS), 2020)
